# Measured values as given in PubChem BioAssay AID1721 (National Center for Advancing Translational Sciences (NCATS), 2009).
# Screen size: about 290,000 compounds; about 1,100 (0.38%) were called active. Inconclusive results, whose numbers are uncertain, are shown with a selection of clear calls. Calls follow the shape of the dose curve; as a rule, active = well fitted inhibition curve with a large enough effect; inconclusive = small, poorly fitted or top-dose-only effect, or another doubt; inactive = no such curve, though single readings can be large or run the other way. A potency beside an inconclusive call is a rough fit, not a confirmed value.
# Target: Pyruvate kinase (Leishmania mexicana) (UniProt Q27686)
# Assay: qHTS Assay for Inhibitors of Leishmania Mexicana Pyruvate Kinase (LmPK)
# Conditions: purified LmPK, Kinase-Glo ATP luminescence, 1 h; activity change, negative = inhibition: at 57.5 µM (top of the series) unless noted
# Summary of the method: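 ATP generated from ADP (0.1 mM) and PEP (0.5 mM) by 0.1 nM LmPK over 1 h at room temperature (pH 7.2 imidazole buffer) was detected by coupled luciferase luminescence. Values were normalized to uninhibited and no-enzyme wells.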
# % is scaled to controls: 0 for no effect and ±100 for the full control effect; potency is read from the fitted curve at half-maximal effect; tags tell the direction and shape of the fitted curve.
# UniProt Q27686, sequence (Q27686 whole entry, looked up): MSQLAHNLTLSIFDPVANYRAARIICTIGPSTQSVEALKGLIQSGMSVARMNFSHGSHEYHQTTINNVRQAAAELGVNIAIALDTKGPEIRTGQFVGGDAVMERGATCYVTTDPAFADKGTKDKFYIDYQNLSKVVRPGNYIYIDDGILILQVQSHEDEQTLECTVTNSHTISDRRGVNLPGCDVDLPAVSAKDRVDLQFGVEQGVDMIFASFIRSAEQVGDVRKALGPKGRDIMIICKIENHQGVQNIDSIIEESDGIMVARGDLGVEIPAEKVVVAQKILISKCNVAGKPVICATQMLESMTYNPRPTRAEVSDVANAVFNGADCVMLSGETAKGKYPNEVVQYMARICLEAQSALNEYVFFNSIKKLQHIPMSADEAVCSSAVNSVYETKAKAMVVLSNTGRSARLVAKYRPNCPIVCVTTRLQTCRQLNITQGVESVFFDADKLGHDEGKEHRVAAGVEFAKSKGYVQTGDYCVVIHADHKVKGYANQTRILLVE
Compound,Potency,"activity change, negative = inhibition"
C[n+]1cc[nH]c1SCC(=O)c1ccc(Cl)cc1,"inconclusive: 31.6 µM [falling, single point]",
C=CCN(CC=C)c1cnn(-c2nc3ccccc3[nH]2)c(=O)c1Cl,active: 15.8 µM,
c1ccc(Nc2nc(-c3cccs3)cs2)nc1,"inconclusive: 35.5 µM [falling, single point]",
COc1ccc2c(c1)NP(=S)(Oc1ccccc1)N2 (stereo not given),"inconclusive: 20 µM [falling, single point]",
Cc1ccc(C2=Nc3ccccc3N=C(C(Cl)Cl)C2)cc1,"inconclusive: 39.8 µM [falling, single point]",
CCOC(=O)c1sc(NC(=O)c2ccc(OC(C)=O)cc2)nc1C,"inconclusive: 31.6 µM [falling, single point]",
CCS(=O)(=O)c1ccc2oc(Nc3ccccc3C)nc2c1,"inconclusive: 25.1 µM [falling, partial curve]",
CC(C)Cn1c(-c2ccc(Br)cc2)c[nH]c1=S,"inconclusive: 15.8 µM [falling, partial curve]",
c1ccc(CN=C2Nc3ccccc3CS2)nc1,"inconclusive: 28.2 µM [falling, partial curve]",
O=[N+]([O-])c1cc2oc3c(c2c(C=NCc2ccccc2)c1O)CCCC3,active: 1 µM,
Cn1c(=O)c(C(=O)Nc2ccccn2)c(O)c2ccccc21,"inconclusive: 25.1 µM [falling, single point]",
COc1cccc(/C=N/c2nc3ccccc3n2C)c1O,"inconclusive: 25.1 µM [falling, single point]",
O=C(CCN1C(=O)c2ccccc2C1=O)Nc1ccc(-c2nc3ccccc3s2)cc1,inactive,
CCCCn1c(-c2sccc2C)n[nH]c1=S,active: 31.6 µM,
COc1ccc(C(=O)O/N=C(\N)c2ccccn2)c(OC)c1,"inconclusive: 28.2 µM [falling, single point]",
Cc1cccc(C(=O)Nc2ccc(O)cc2C(=O)O)c1,"inconclusive: 17.8 µM [falling, single point]",
O=C(Nc1nc2c(F)cc(F)cc2s1)c1ccccn1,"inconclusive: 11.2 µM [falling, partial curve]",
Cc1ccc(C(C(=O)NCc2ccco2)N(C(=O)CNC(=O)c2cccs2)c2c(C)cc(C)cc2C)cc1 (stereo not given),inactive,
CN(CCNC(=O)c1cc2c(=O)n(C)c3ccccc3c2n1C)Cc1ccccc1,inactive,
C=CCOc1ccc(C=Nc2ccc(Cl)cc2)c(O)c1,"inconclusive: 20 µM [falling, partial curve]",
O=C(Nc1ccccc1F)N(CCCN1CCOCC1)Cc1cc2cc3c(cc2[nH]c1=O)OCCO3,"inconclusive: 22.4 µM [falling, partial curve]",
Cc1cc(SCC(=O)c2ccccc2)nc(C)n1,"inconclusive: 31.6 µM [falling, single point]",
Oc1c(Br)cc(/C=N/n2c(-c3ccccc3)n[nH]c2=S)c(O)c1Br,"inconclusive: 20 µM [falling, partial curve]",
O=C(Nc1ccc(C(=O)O)c(O)c1)c1ccccc1,"inconclusive: 17.8 µM [falling, partial curve]",
CCOc1cccc2sc(NN)nc12,"inconclusive: 0.708 µM [falling, partial curve, poor fit]",
O=C1/C(=C\c2cccnc2)CCc2ccccc21,active: 15.8 µM,
CCOc1cc(C2C3=C(CCCC3=O)NC3=C2C(=O)CCC3)cc(Cl)c1O,"inconclusive: 35.5 µM [falling, single point]",

Compound,Potency,"activity change, negative = inhibition"
CCOC(=O)Cc1nnc(NC(=O)c2ccccc2OC)s1,inactive,
c1c2c(cc3sc(N4CCOCC4)nc13)OCO2,active: 15.8 µM,
CNC(=S)N/N=C/c1ccc(-c2cccc(C(=O)O)c2)o1,"inconclusive: 14.1 µM [falling, partial curve]",
CCOC(=O)C1CCN(C(=O)CCS(=O)(=O)c2ccc3c(c2)CC(C)N3C(=O)CC)CC1 (stereo not given),,inactive: 6.81% [at 11.5 µM]
Cc1cc2nc(-c3cccnc3SCC(=O)NCc3ccco3)[nH]c2cc1C,"inconclusive: 25.1 µM [falling, partial curve]",
COc1ccc(-c2cn3cccc(C)c3n2)cc1F,"inconclusive: 25.1 µM [falling, partial curve]",
Cn1c(SCc2ccccc2Cl)nc2ccccc21,"inconclusive: 22.4 µM [falling, single point]",
Cc1ccc(NC(=O)C(=O)Nc2ccccn2)cc1,"inconclusive: 14.1 µM [falling, partial curve]",
COc1ccc(/C=C(\C#N)C(=O)c2cccn2C)cc1,"inconclusive: 31.6 µM [falling, single point]",
N#C/C(C(N)=O)=c1/ccc2c(c1)N1C3=C(CCCC3)CC3CCCCC31N=2 (stereo not given),active: 7.94 µM,
CC(C)N=C1NN=C(c2ccc(F)cc2)CS1,"inconclusive: 14.1 µM [falling, partial curve]",
C=CCOc1ccc(/C=C/C(C)=N\O)cc1,"inconclusive: 15.8 µM [falling, partial curve]",
CCN(CC)S(=O)(=O)c1ccc(NC(=O)c2ccccn2)cc1,"inconclusive: 31.6 µM [falling, single point]",
O=C1CCOc2cc(OCc3ccccc3)ccc21,"inconclusive: 22.4 µM [falling, partial curve]",
COCc1nc(-c2ccc(-c3ccc(OC)cc3)nc2OC)no1,inactive,
Cc1ccccc1-c1cc2c(nn1)-c1ccccc1C2=O,active: 5.01 µM,
CCOc1ccccc1N/C(=C(/C(Cl)=C(Cl)Cl)[N+](=O)[O-])n1cncn1,inactive,
Cn1ccnc1SCC(=O)c1c[nH]c2ccccc12,"inconclusive: 22.4 µM [falling, partial curve]",
COc1cc(/C=N/N=C2/NC(=O)C(CC(=O)O)S2)ccc1OCc1ccc(Cl)cc1 (stereo not given),"inconclusive: 31.6 µM [falling, single point]",
CC(C)(C)C(=O)Nc1ccc(-c2cn3ccsc3n2)cc1,"inconclusive: 15.8 µM [falling, partial curve]",
COc1ccccc1C(=O)Nc1ccc2c(c1)OCO2,"inconclusive: 25.1 µM [falling, single point]",
Cc1csc(NC(=O)c2ccc(N3CCCC3=O)cc2)n1,"inconclusive: 12.6 µM [falling, partial curve]",
CN=c1scc(-c2ccco2)n1/N=C/c1ccc(O)c(O)c1,active: 5.62 µM,
CCOC(=O)c1csc(NC(=O)C2CCCCC2)n1,inactive,
COc1ccc(-c2nc(C)c(C(C)=O)n2O)cc1,"inconclusive: 31.6 µM [falling, single point]",
O=C(N/N=C/c1ccc2c(c1)OCO2)c1ccc(Br)o1,"inconclusive: 8.91 µM [falling, partial curve]",
Cc1ccc(/C=N/NC(=O)c2ccco2)cc1,"inconclusive: 25.1 µM [falling, single point]",

Compound,Potency,"activity change, negative = inhibition"
CC(=O)N1C(C(=O)O)Cc2c([nH]c3ccccc23)C1(C)C (stereo not given),inactive,
Cc1cccc(-n2c(-c3ccco3)n[nH]c2=S)c1,active: 17.8 µM,
COc1ccc(-n2c(-c3ccc(C)cc3)n[nH]c2=S)cc1,"inconclusive: 6.31 µM [falling, partial curve]",
O=C(COC(=O)c1cccnc1Cl)c1ccc(OC(F)F)cc1,active: 15.8 µM,
CC(=O)c1cccc2c(O)c(C3=Nc4ccccc4C3=O)[nH]c12,active: 25.1 µM,
CN(C)c1ccc(N/C=C/C(=O)c2ccco2)cc1,active: 7.08 µM,
O=C(Nc1ccccn1)c1cccs1,"inconclusive: 28.2 µM [falling, single point]",
CCc1ccc(C2CC(c3ccco3)=NN2S(C)(=O)=O)cc1 (stereo not given),active: 12.6 µM,
CCOC(=O)c1ccc(NC(=S)N2CCSC2c2ccc(Br)cc2)cc1 (stereo not given),inactive,
Cc1ccc2nc(-c3ccccn3)oc2c1,active: 15.8 µM,
COC(=O)CC(=O)CSc1nc2c(cc1C#N)CCC2,"inconclusive: 31.6 µM [falling, single point]",
O=C(Oc1ccc(Cl)c2cccnc12)c1ccco1,inactive,
COc1ccc2c(=O)c(-c3nc(C)cs3)coc2c1,"inconclusive: 15.8 µM [falling, partial curve]",
N/C(=N\OC(=O)c1ccccc1Cl)c1ccccn1,active: 7.08 µM,
Nc1c(Cl)ncnc1N/N=C/c1ccc(O)cc1,"inconclusive: 14.1 µM [falling, partial curve]",
Cc1ccc(N2C(=O)c3ccccc3C2Nc2ccccc2)nc1 (stereo not given),inactive,
Cc1ccc2c(c1)N=C(c1ccc(F)cc1)CO2,"inconclusive: 11.2 µM [falling, partial curve]",
Clc1ccccc1N/N=C/c1ccc2c(c1)OCO2,"inconclusive: 10 µM [falling, partial curve]",
COc1ccc(-c2n[nH]c(=S)n2-c2cc(OC)ccc2OC)cc1,active: 3.55 µM,
COc1ccc(-c2noc(CCCC(=O)O)n2)cc1,inactive,
COCCOC(=O)CSc1ncccc1-c1nc2cc(C)c(C)cc2[nH]1,active: 14.1 µM,
COCCOCCn1c(/C=C/c2ccccc2)nc2ccccc21,active: 14.1 µM,
COc1ccc(C2SCC(=O)N2c2nc3ccccc3s2)cc1 (stereo not given),inactive,
O=C(CN(c1ccc(F)cc1)S(=O)(=O)c1ccc2c(c1)OCCO2)Nc1ccccc1,inactive,
COc1ccc(C2=CC3=C(Br)C(=O)C(C)(O)C(=O)C3=CO2)cc1 (stereo not given),"inconclusive: 28.2 µM [falling, single point]",
Cc1cc(C(=O)Nc2ccccc2)oc1C,active: 15.8 µM,
